Measurements as given in PubChem BioAssay AID463173 (ICCB-Longwood Screening Facility, Harvard Medical School, 2010).
Among all 52,000 compounds or so, about 4,300 (8.3%) were called active. Cut-off read from the data, not from the text of the source: active = survival mostly below about 52% (no sharp cut-off); inactive = mostly above about 56%. This is one part of the list.

Tested on: DeltatarO mutant
Assay: growth inhibition of S. aureus wild type versus tarO mutant, primary screen, teichoic acid synthesis inhibitors, RN4220, OD600 (AID 463173)
Conditions: OD600, 18 h, active compounds read low, screened at 18.75 µg/mL (by protocol)

| Structure (SMILES) | survival |
| --- | --- |
| Cc1ccc(Cl)cc1N(C)C(=O)c1cc2c(Cl)nc3ccccc3c2s1 | inactive: 54% |
| C=CCOc1c(Br)cc(CNCCCN2CCOCC2)cc1OC | inactive: 102% |
| O=C(C1CCC(Cn2c(=O)c3sccc3n(Cc3cccc(F)c3)c2=O)CC1)N1CCOCC1 (centres undefined) | inactive: 66% |
| Cc1nc2ccccn2c1C(=O)NC1CCCC1 | inactive: 82% |
| CCn1ccc2cc(S(=O)(=O)N3CCCN(C(=O)Nc4cccc(SC)c4)CC3)ccc21 | active: 47% |
| CCCNC(=O)C1CCN(C(=O)N2CC(C)Oc3ccccc32)CC1 (centres undefined) | inactive: 65% |
| COc1ccc(-n2ccnc2SCC(=O)Nc2cccc(OC)c2)cc1 | inactive: 98% |
| CCCCN(C)S(=O)(=O)c1ccc(NC2=NS(=O)(=O)c3ccccc32)cc1 | inactive: 79% |
| Cc1ccc(NC(=O)Cn2cc(C(=O)c3ccco3)c3ccccc32)cc1C | inactive: 60% |
| COc1ccccc1NC(=O)CSc1ccc(-c2ccccn2)nn1 | inactive: 42% |
| Cc1ccc(N(C)C(CNS(=O)(=O)c2ccccc2)c2ccccc2)cc1 (centres undefined) | inactive: 101% |
| COc1cccc(CNC(=O)Cn2nc(-c3ccc(C)cc3)ccc2=O)c1 | inactive: 75% |
| Cc1ccc(CSCCNC(=O)C2CCN(S(=O)(=O)Cc3ccccc3)CC2)cc1 | inactive: 99% |
| O=C(O)CSCC(=O)Nc1cccc(C(F)(F)F)c1 | inactive: 80% |
| CCCCCOc1ccccc1CN1C(=O)C(=O)c2cc(C)ccc21 | inactive: 151% |
| CCc1ccc(/C=C(/C#N)C(=O)OC)s1 | inactive: 73% |
| CC1(C)CC(NCc2ccccc2)CCO1 (centres undefined) | inactive: 79% |
| Cc1ccc(/C=C/C(=O)N2CCC(c3nc4ccccc4o3)CC2)cc1 | inactive: 87% |
| COc1ccc(NC(=O)c2c(NCc3ccc(OC)c(OC)c3OC)sc3c2CCC3)c(OC)c1 | inactive: 83% |
| Cc1ccc(-n2nc3c(N4CCC(C(=O)NC5CCCCC5)CC4)nnc(C)c3c2C)cc1 | inactive: 81% |

| Structure (SMILES) | survival |
| --- | --- |
| Cc1ccc(N2C(=O)CSC2=S)c(C)c1 | inactive: 96% |
| COc1ccc(-c2ccc(CNCCCSc3nnnn3C)o2)cc1Cl | inactive: 79% |
| COc1ccc(-n2ncc(C(=O)N3CCN(C(=O)c4ccco4)CC3)c2C2CCN(C(=O)OC(C)(C)C)CC2)cc1 | inactive: 86% |
| CC(C)Cc1ccc(S(=O)(=O)NCc2nc3cccnc3n2Cc2ccccc2)cc1 | inactive: 109% |
| C=CCn1c(O)c(CN2CCOCC2)c(C)c(C#N)c1=O | inactive: 89% |
| CC1=C(C(N)=O)C(c2cccc(Br)c2)n2nc(SCc3ccccc3Cl)nc2N1 (centres undefined) | inactive: 80% |
| CCc1nc2ccc(C(=O)N3CCN(c4cc(C)ccc4C)CC3)cc2nc1CC | inactive: 66% |
| Fc1ccc(CSc2nncn3c2cc2occc23)c(Cl)c1 | inactive: 58% |
| CCOc1ccc(CCNC(=O)c2cc3sccc3n2CC)cc1OCC | inactive: 90% |
| Cc1onc(-c2ccccc2)c1C(=O)NC(C)C | inactive: 78% |
| Cc1ccc(N(C)S(=O)(=O)c2ccc(-c3coc(C)n3)cc2)cc1 | inactive: 75% |
| Cc1cccc(-c2noc(-c3ccc(NCc4ccccc4)c([N+](=O)[O-])c3)n2)c1 | inactive: 80% |
| CC1=C(c2ccc(C)c(C)c2)S(=O)(=O)N=C1N1CCC(C(=O)NCc2ccccc2C)CC1 | inactive: 76% |
| COc1ccccc1N1CCN(CCCNC(=O)c2nnc(Cc3ccc(F)cc3Cl)o2)CC1 | inactive: 74% |
| Cc1ccc(NC(=O)CN2C(=O)COc3ccc(S(=O)(=O)N4CCOCC4)cc32)cc1N(C)C | inactive: 99% |
| CCCCOc1ccccc1Cn1c(=O)sc2ccccc21 | active: -2% |
| CC1CCN(c2ccc(C(=O)O)cc2)CC1 | inactive: 62% |
| CCOc1ccc(C(=O)Nc2cccc(NC(=O)c3ccc(Cl)cc3Cl)c2)cc1 | inactive: 75% |
| Cc1cccc(NC(=O)CN(C)S(=O)(=O)c2ccc3c(c2)CCC(=O)N3)c1C | inactive: 93% |
| Clc1cc2c(cc1C=Nc1ccc(N3CCOCC3)cc1)OCO2 | inactive: 83% |

| Structure (SMILES) | survival |
| --- | --- |
| Cc1cccc(CCNC(=O)c2cc3c(=O)[nH]c4ccc(C)cc4c3s2)c1 | inactive: 47% |
| COc1ccccc1CNc1nc2ccccc2c2nc(-c3cccc(C)c3)nn12 | active: 24% |
| COc1ccc(-c2nc3sc(CCNC(=O)C(=O)Nc4cc(F)ccc4F)c(C)n3n2)cc1 | inactive: 61% |
| COc1cc([N+](=O)[O-])ccc1NC(=O)N1CCC2(CC1)Nc1ccccc1-n1cccc12 | active: 37% |
| CCn1cc(C(=O)NCCN(CC(C)C)CC(C)C)c(=O)c2cc(S(=O)(=O)N(C)C3CCCCC3)ccc21 | inactive: 92% |
| CCOCCCn1c(SCC(=O)NCc2ccccc2)nc2c(sc3ccccc32)c1=O | active: -5% |
| Cn1c(=O)n(C)c2cc(N3CCOCC3)c(NC(=O)c3ccc(C(C)(C)C)cc3)cc21 | inactive: 80% |
| COc1ccc(NC(=O)c2nnn(CC(=O)Nc3cccc(C)c3C)c2N)c(OC)c1 | inactive: 60% |
| O=C(CSc1nnc(COc2ccc(F)cc2)o1)N1c2ccccc2CCc2ccccc21 | inactive: 65% |
| CCOC(=O)c1cccc(NS(=O)(=O)c2ccc(-c3coc(C)n3)cc2)c1 | inactive: 80% |
| COc1cc2c(cc1NC(=O)COc1ccc(Br)cc1)oc1ccccc12 | inactive: 72% |
| Cc1cc(C)c(NC(=O)C2CCN(C(=O)N3CCOc4ccccc43)CC2)c(C)c1 | inactive: 71% |
| CCOc1ccc2nc(NCCCNS(=O)(=O)c3ccccc3)c(C#N)cc2c1 | inactive: 79% |
| COC(=O)c1ccc2c(=O)n(CCc3ccc(S(N)(=O)=O)cc3)c(SCC(=O)C(C)(C)C)nc2c1 | inactive: 72% |
| COc1ccc(-c2cc(C(F)(F)F)n3ncc(-c4ccccc4)c3n2)cc1 | inactive: 49% |
| CCc1cccc(N2C(=O)CS(=O)(=O)C23C(=O)N(Cc2ccccc2)c2ccc(C)cc23)c1 (centres undefined) | inactive: 84% |
| CSc1ccc(CNC(=O)c2sc3ncnc(N(C)C4CCCCC4)c3c2C)cc1 | inactive: 64% |
| Cc1cccc(C(=O)N2c3ncnn3C3(CCCCC3)[C@@H]3CCCC[C@@H]32)c1 | inactive: 82% |
| Cc1cccc(Nc2cc(C)nc(-n3nc(C)cc3C)n2)c1 | inactive: 84% |
